Reference: PubChem BioAssay (NCATS)
The inconclusive results got no clear call from the source; some entries with a clear call stand among them for comparison. For some of these results: Where the call is inconclusive, the potency comes from a doubtful curve fit. Activity calls are given as the source filed them. Unless noted, calls come from the whole dose curve; as a rule, active = well fitted curve in the direction sought with a large enough effect; inconclusive = small, poorly fitted or top-dose-only effect, or another doubt; inactive = no such curve, though single readings can be large; an effect the other way counts as inactive or inconclusive.

Key:
[1] = target: Aldehyde dehydrogenase, mitochondrial (Homo sapiens) (UniProt P05091); assay: qHTS for Inhibitors of the Aldehyde Dehydrogenase Family (ALDH2) Confirmatory screens (AID 2061303; active = well fitted inhibition curve with a large enough effect; inconclusive = small, poorly fitted or top-dose-only effect; inactive = no such curve, though single readings can be large or run the other way; title and protocol of this record describe different tests; note: nearly all actives have a fitted effect of over 45% in size; note: potency is the fitted concentration of half-maximal effect; for activity change, negative = inhibition: % is set by controls: 0 for no effect and ±100 for the full control effect); conditions: ALDH inhibition qHTS; activity change, negative = inhibition: at 45.4 µM (top of the series)
[2] = qHTS for Inhibitors of the Aldehyde Dehydrogenase Family (ALDH1A2, ALDH1A3, ALDH2, ALDH3A1) (AID 2061307); conditions: ALDH inhibition qHTS; activity change, negative = inhibition: at 50.3 µM (top of the series) unless noted; note: nearly all actives have a fitted effect of over 50% in size; for activity change, negative = inhibition: % is set by controls: 0 for no effect and ±100 for the full control effect; for potency: test system not described further here; potency is the fitted concentration of half-maximal effect
[3] = target: Aldehyde dehydrogenase, mitochondrial (Homo sapiens) (UniProt P05091); assay: qHTS for Inhibitors of the Aldehyde Dehydrogenase Family (ALDH2) Primary screen (AID 2061308); note: nearly all actives have a fitted effect of over 55% in size; note: potency is the fitted concentration of half-maximal effect;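 for activity change, negative = inhibition: plate controls were vehicle for no effect and reference inhibitor for full effect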
[4] = target: Retinaldehyde dehydrogenase 3 (Homo sapiens) (UniProt P47895); assay: qHTS for Inhibitors of the Aldehyde Dehydrogenase Family (ALDH1A3) Confirmatory screens (AID 2061311); conditions: activity change, negative = inhibition: at 46 µM (top of the series); note: nearly all actives have a fitted effect of over 60% in size; note: potency is the fitted concentration of half-maximal effect; for activity change, negative = inhibition: % is set by controls: 0 for no effect and ±100 for the full control effect
[5] = target: Retinal dehydrogenase 2 (Homo sapiens) (UniProt O94788); assay: qHTS for Inhibitors of the Aldehyde Dehydrogenase Family (ALDH1A2) Confirmation screens (AID 2061314); conditions: activity, negative = inhibition: at 45.9 µM (top of the series) unless noted; note: nearly all actives have a fitted effect of over 65% in size; note: potency is the fitted concentration of half-maximal effect; for activity, negative = inhibition: % is set by controls: 0 for no effect and ±100 for the full control effect
[6] = target: Aldehyde dehydrogenase 1A1 (Homo sapiens) (UniProt P00352); assay: qHTS for Inhibitors of the Aldehyde Dehydrogenase Family (ALDH1A1) Confirmatory screens (AID 2061316); conditions: activity change, negative = inhibition: at 47.3 µM (top of the series); note: nearly all actives have a fitted effect of over 65% in size; note: potency is the fitted concentration of half-maximal effect
[7] = target: Retinaldehyde dehydrogenase 3 (Homo sapiens) (UniProt P47895); assay: qHTS for Inhibitors of the Aldehyde Dehydrogenase Family (ALDH1A3) Primary screen (AID 2061315); conditions: ALDH inhibition qHTS; activity change, negative = inhibition: at 56 µM (top of the series) unless noted; note: potency is the fitted concentration of half-maximal effect;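 for activity change, negative = inhibition: plate controls were DMSO vehicle for no effect and reference inhibitor for full effect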
[8] = BET inhibitor-based combinations targeting novel dependencies in MECOM-rearranged (r) AML: OCI-AML3 cell line (AID 2202232); conditions: CellTiter-Glo luminescence, 48 h; Potency: OCI-AML3 viability; viability (% of control): at 46 µM (top of the series); note: nearly all actives have a fitted effect of over 35% in size; note: potency is the fitted concentration of half-maximal effect;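 for viability (% of control): plate controls were DMSO vehicle wells for no effect and wells without cells for full effect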
Summary of the method: (§1)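 Readout: CellTiter-Glo luminescence. Exposure: 48 h, 11 concentrations, 500 cells/well. Metric: AUC and within-line Z-AUC after DMSO/empty-well normalization.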

[9] = BET inhibitor-based combinations targeting novel dependencies in MECOM-rearranged (r) AML: AML-194 cell line (AID 2202237; note: potency is the fitted concentration of half-maximal effect; nearly all actives have a fitted effect of over 40% in size)
Summary of the method: as §1

[10] = BET inhibitor-based combinations targeting novel dependencies in MECOM-rearranged (r) AML: SET-2 cell line (AID 2202231); conditions: SET-2 AML cells viability, CellTiter-Glo luminescence, 48 h; viability: stronger effect = lower value, concentration not given here;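 note: plate controls were DMSO treated cells for no effect and wells without cells for full effect; nearly all actives have a fitted effect of over 35% in size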
Summary of the method: as §1

[11] = BET inhibitor-based combinations targeting novel dependencies in MECOM-rearranged (r) AML: AML-191 cell line (AID 2202236;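 note: plate controls were vehicle wells for no effect and wells without cells for full effect; nearly all actives have a fitted effect of over 35% in size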)
Summary of the method: as §1
Tags give direction and shape of the fitted curve.

| Compound | Potency [1] | Potency [2] | Potency [3] | Potency [4] | Potency [5] | Potency [6] | Potency [7] | Potency [8] | Potency [9] | viability [10] | Potency [11] |
| --- | --- | --- | --- | --- | --- | --- | --- | --- | --- | --- | --- |
| Oc1ccc(Nc2nc(-c3ccncc3)nc3ccccc23)cc1F | inactive | inconclusive: 0.708 µM [inhibitor, full curve, poor fit] | inconclusive: 0.501 µM [inhibitor, full curve, poor fit] | inconclusive: 22.5 µM [inhibitor, partial curve] | inconclusive: 4 µM [inhibitor, full curve] | inconclusive: 7.98 µM [inhibitor, partial curve] | – | – | – | – | – |
| O=C(CN1C2=NCCN2c2ccccc21)c1ccc(-c2ccccc2)cc1 | active: 3.57 µM | active: 3.57 µM | inconclusive: 7.08 µM [inhibitor, full curve] | active: 31.6 µM | – | inconclusive: 17.9 µM [inhibitor, partial curve] | – | – | – | – | – |
| Clc1nc(CN2CCOCC2)nc2sc3c(c12)CCCC3 | active: 4 µM | inconclusive: 0.447 µM [inhibitor, full curve, poor fit] | inactive | inconclusive: 22.5 µM [inhibitor, partial curve] | inconclusive: 25.2 µM [inhibitor, partial curve] | inconclusive: 10.1 µM [inhibitor, full curve] | – | – | – | – | – |
| Cc1ccc(CCN2C(=O)c3ccc(C(=O)O)cc3C2=O)cc1 | inconclusive: 20.1 µM [inhibitor, partial curve] | inactive | inconclusive: 7.08 µM [inhibitor, full curve] | inactive | – | inconclusive: 12.7 µM [inhibitor, partial curve] | – | – | – | – | – |
| CC(=O)NC(C)c1cc(Cl)c2ccccc2c1O (stereo not drawn) | inconclusive: 14.2 µM [inhibitor, partial curve] | inconclusive: 3.57 µM [inhibitor, full curve] | inconclusive: 7.08 µM [inhibitor, partial curve, poor fit] | active: 3.18 µM | – | active: 4 µM | inconclusive: 1.58 µM [inhibitor, full curve] | – | – | – | – |
| O=S(=O)(O)c1ccc2cc(N=Nc3cc(S(=O)(=O)O)c4cccnc4c3O)ccc2c1 | inconclusive: 15.9 µM [inhibitor, partial curve] | inactive | inconclusive: 8.91 µM [inhibitor, partial curve] | inconclusive: 12.7 µM [inhibitor, partial curve] | inactive | inconclusive: 22.5 µM [inhibitor, partial curve] | – | inactive | inconclusive: 26.3 µM [inhibitor, partial curve, poor fit] | – | – |
| CCOC(=O)C1CCN(C(=O)C(C)(C)NC(=O)Nc2ccc(N(C)C)cc2)CC1 | inconclusive: 11.3 µM [inhibitor, partial curve] | inactive | inconclusive: 3.16 µM [inhibitor, full curve, poor fit] | active: 14.2 µM | – | inconclusive: 17.9 µM [inhibitor, partial curve, poor fit] | inconclusive: 12.6 µM [inhibitor, partial curve] | – | – | – | – |
| O=S(=O)(Nc1cc(O)cc2cccnc12)c1ccc(Cl)s1 | active: 8.96 µM | inconclusive: 0.896 µM [inhibitor, full curve] | active: 0.631 µM | active: 0.504 µM | – | – | inconclusive: 0.708 µM [inhibitor, full curve] | – | – | – | – |
| Cn1nnnc1Sc1ncnc2scc(I)c12 | inconclusive: 12.7 µM [inhibitor, partial curve, poor fit] | inconclusive: 25.2 µM [inhibitor, single point] | inconclusive: 3.55 µM [inhibitor, full curve] | inconclusive: 14.2 µM [inhibitor, partial curve] | inactive | active: 25.2 µM | – | – | – | – | – |
| Cc1cccc(CNc2ccnc(-c3cccc4ccccc34)n2)c1 | inactive | inactive | inconclusive: 22.4 µM [inhibitor, partial curve, poor fit] | inactive | – | inactive | – | – | – | – | – |
| Cc1csc(CNc2ncnc3ccc(-c4ccc(C(C)O)o4)cc23)n1 (stereo not drawn) | inconclusive: 12.7 µM [inhibitor, partial curve] | inconclusive: 31.6 µM [inhibitor, single point] | inconclusive: 7.94 µM [inhibitor, partial curve, poor fit] | inconclusive: 8.91 µM [inhibitor, full curve] | – | active: 11.3 µM | – | – | – | – | – |
| COc1ccc(-c2nc3ccccc3c(=O)n2Cc2ccccc2)cc1CNc1ccc(NC(C)=O)cc1 | inconclusive: 12.7 µM [inhibitor, partial curve] | active: 12.7 µM | inconclusive: 7.94 µM [inhibitor, partial curve, poor fit] | active: 11.3 µM | – | – | inconclusive: 22.4 µM [inhibitor, partial curve, poor fit] | – | – | – | – |
| O=C1c2ccccc2NC(c2ccc(-c3ccccc3F)o2)N1O (stereo not drawn) | active: 11.3 µM | inconclusive: 35.7 µM [inhibitor, partial curve, poor fit] | active: 8.91 µM | inactive | – | inconclusive: 20.1 µM [inhibitor, partial curve] | – | – | – | – | – |
| CC(=O)N1CCN(c2ccc(NCc3ccc4c(c3)OCO4)cc2)CC1 | inconclusive: 12.7 µM [inhibitor, partial curve] | active: 8.96 µM | inconclusive: 14.1 µM [inhibitor, partial curve] | active: 11.3 µM | – | inconclusive: 22.5 µM [inhibitor, partial curve] | inconclusive: 11.2 µM [inhibitor, partial curve] | – | – | – | – |
| Cc1nnc(C(=O)NC(C)(C)c2nc(C(=O)NCc3ccc(F)cc3)c(O)c(=O)n2C)o1 | inconclusive: 14.1 µM [inhibitor, single point] | active: 1.59 µM | inconclusive: 35.5 µM [inhibitor, partial curve, poor fit] | inconclusive: 25.2 µM [inhibitor, partial curve, poor fit] | inconclusive: 11.3 µM [inhibitor, partial curve] | inactive | – | inconclusive: 0.662 µM [inhibitor, partial curve, poor fit] | – | inactive: 118% | inactive |
| Cc1ccc(-c2nc3ccccc3s2)cc1NC(=O)c1ccc(-c2cccc(Cl)c2)o1 | inconclusive: 20.1 µM [inhibitor, partial curve] | inconclusive: 22.5 µM [inhibitor, partial curve] | inconclusive: 15.8 µM [inhibitor, partial curve] | inconclusive: 11.3 µM [inhibitor, partial curve] | – | active: 8.96 µM | inactive | – | – | – | – |
| O=C1Nc2ccc(Cl)cc2/C1=C\c1cc(Cl)c(O)c(Cl)c1 | inconclusive: 11.3 µM [inhibitor, partial curve] | active: 10.1 µM | inconclusive: 10 µM [inhibitor, partial curve, poor fit] | inactive | – | inconclusive: 15.9 µM [inhibitor, partial curve] | – | – | – | – | – |
| CCOC(=O)c1ccc(-c2ccc3ncnc(NCc4ccc(C)o4)c3c2)o1 | inconclusive: 15.9 µM [inhibitor, partial curve] | inactive | inconclusive: 31.6 µM [inhibitor, partial curve, poor fit] | inconclusive: 17.9 µM [inhibitor, partial curve] | active: 12.7 µM | inconclusive: 10.1 µM [inhibitor, partial curve] | – | – | – | – | – |
| CN(C)C(=O)c1ccc(-c2cc[nH]c(=O)c2N)cc1 | inconclusive: 0.4 µM [inhibitor, full curve, poor fit] | inconclusive: 0.504 µM [inhibitor, full curve, poor fit] | inconclusive: 3.98 µM [inhibitor, partial curve] | inconclusive: 22.5 µM [inhibitor, partial curve, poor fit] | – | inconclusive: 0.634 µM [inhibitor, full curve] | – | – | – | – | – |
| O=S(=O)(Nc1cc(O)cc2cccnc12)c1ccc(Br)s1 | inactive | inactive | inconclusive: 0.708 µM [inhibitor, full curve] | inactive | – | inconclusive: 3.57 µM [inhibitor, partial curve] | inconclusive: 0.562 µM [inhibitor, full curve] | – | – | – | – |
| CCCC/C=C\CCCCCc1cc(=O)c2ccccc2n1C | inconclusive: 13.9 µM [inhibitor, partial curve] | inconclusive: 8.91 µM [inhibitor, full curve, poor fit] | active: 8.91 µM | inactive | – | inconclusive: 12.4 µM [inhibitor, partial curve] | – | – | – | – | – |
| S=C(Nc1cc(Cl)ccn1)N1CCN(c2ccc(Cl)c(Cl)c2)CC1 | active: 5.62 µM | active: 6.31 µM | active: 3.98 µM | inconclusive: 2.82 µM [inhibitor, full curve, poor fit] | inconclusive: 10 µM [inhibitor, full curve, poor fit] | active: 4 µM | – | – | – | – | – |
| N#CNC(=O)c1ccc(-n2cccc2/C=C2\NC(=O)N(CC(=O)Nc3ccc(F)cc3)C2=O)cc1 | inconclusive: 14.1 µM [inhibitor, partial curve, poor fit] | active: 4 µM | inconclusive: 14.1 µM [inhibitor, partial curve, poor fit] | inactive | inconclusive: 4 µM [inhibitor, full curve, poor fit] | inactive | – | – | – | – | – |
